In all, about 48,000 compounds went through this assay and about 1,200 (2.5%) were called active. Roughly 2% stayed inconclusive and do not appear here.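 The calls were made as follows: active = activation of at least 60% and not above a set upper limit (about 1 call in 100 departs from these limits); inconclusive = activation of 40% to 60%, or above that upper limit; inactive = activation under 40%.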 The list shows a part of the results.
What follows are compounds tested against Probable G-protein coupled receptor 32 (Homo sapiens) (UniProt O75388) (assay: qHTS for Agonists of Human Resolvin D1 Receptor DRV1). Conditions: CHO-K1 GPR32 beta-arrestin PathHunter luminescence, 90 min; at 76.9 µM; hits give high values; zero percent set by DMSO-only wells.
Summary of the method: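 Beta-arrestin recruitment read-out: luminescence from complemented beta-Gal in CHO-K1 GPR32 PathHunter cells, measured 1 h after detection reagent at ambient temperature following 90 min compound exposure at 37 °C; DMSO served as basal (EC0) control.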
Also: 0% is about no effect.

Chain of UniProt O75388 (O75388 whole entry, looked up): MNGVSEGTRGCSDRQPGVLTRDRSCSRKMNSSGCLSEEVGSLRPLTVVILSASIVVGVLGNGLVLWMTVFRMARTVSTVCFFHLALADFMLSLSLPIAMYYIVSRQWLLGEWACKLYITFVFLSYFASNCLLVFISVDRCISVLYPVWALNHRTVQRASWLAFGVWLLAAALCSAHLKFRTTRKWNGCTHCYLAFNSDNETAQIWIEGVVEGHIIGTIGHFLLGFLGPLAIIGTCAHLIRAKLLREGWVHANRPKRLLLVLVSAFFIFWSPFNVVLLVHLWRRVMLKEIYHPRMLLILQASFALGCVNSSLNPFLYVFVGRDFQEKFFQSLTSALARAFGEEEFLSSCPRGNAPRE

activation, inactive:
CCOc1ccccc1NC(=O)c1c(NC(=O)c2cccc(C)c2)sc2c1CCCC2 -2.85%, CCc1ccccc1NC(=O)Nc1cc(C(=O)NCc2ccc(C)cc2)ccc1N1CCCC1 -7.08%, CC(C(=O)NCc1ccccc1F)n1ccc2cc(S(=O)(=O)N3CCCC3)ccc21 (stereo unspecified) -14.6%, O=C(Nc1ccc(C(F)(F)F)cc1)C1CCCN(c2cnccn2)C1 (stereo unspecified) 5.36%, O=C(Nc1ccccc1Cl)N1CCC(CN2CCCCC2)CC1 -4.57%, CC1CN(C(=O)Nc2ccc(C(=O)NCc3cccc(F)c3)cc2)c2ccccc2S1 (stereo unspecified) -28.6%, C[C@H]1[C@H]2CC[C@H]3[C@@H]4CC=C5C[C@@H](N(C)C)CC[C@]5(C)[C@H]4CC[C@]23CN1C 5.2%, O=c1c(S(=O)(=O)c2ccccc2)cn(Cc2ccccc2)c2cc(N3CCOCC3)c(F)cc12 -24.1%, Cc1cccc(C)c1Nc1sc(C(=O)c2ccccc2)c(N)c1C(=O)Nc1ccc(F)cc1 -122%, CCc1cccc(NC(=O)Cn2nc(-c3ccc(OC)cc3)ccc2=O)c1 -2.16%, CCOc1ccccc1NC(=O)Cn1c(=O)n(Cc2ccccc2)c(=O)c2c(C)c(C)sc21 11.7%, CCOC(=O)c1ccc(N2C(=O)c3n[nH]c(-c4cccs4)c3C2c2ccc(C(C)(C)C)cc2)cc1 (stereo unspecified) -4.49%, O=C(Nc1nc2n(n1)C(c1ccccc1)C=C(c1ccccc1)N2)c1ccc(Cl)c([N+](=O)[O-])c1 (stereo unspecified) -36.9%, CCC(C)NC(=O)Cn1ncc2c([nH]c3ccc(C)cc32)c1=O (stereo unspecified) -11.3%, COc1cccc(-c2ccc3c(N)c(C(=O)c4ccc(Cl)cc4)sc3n2)c1 -19.8%, CCOC(=O)c1[nH]c(C)c(CCC(=O)NCc2ccc(OCC)cc2)c1C -12.2%, Cc1ccc(NC(=O)c2c(C)oc3ccc(O)c(CN4CCCCCC4)c23)c(C)c1 -22.9%, COc1cc(NC(=O)C2CCCN(S(=O)(=O)c3ccc4c(c3)oc(=O)n4C)C2)c(C(=O)O)cc1OC (stereo unspecified) 31.3%, CCCCC(Sc1nc2cc3c(cc2c(=O)n1CCCC(=O)NCc1ccc(OC)cc1)OCO3)C(=O)OCC (stereo unspecified) -25.8%, COc1ccc2c(C)c(CC(=O)NCc3ccc(C)cc3)c(=O)oc2c1OC 15.7%, CC(C)OCCCNC(=O)c1cc2c(-c3ccc(Cl)cc3)nn(C)c2s1 2.15%, CCc1ccc(NC(=O)C(=O)NCCc2csc(-c3ccc(C(F)(F)F)cc3)n2)cc1 -13%, O=C(NCc1ccccc1F)c1ccc(CN2CC(=O)N3CCCCC3C2=O)cc1 (stereo unspecified) -14%, Cc1cc(C)c(NC(=O)Cn2c(=O)n(Cc3ccc4c(c3)OCO4)c(=O)c3ccc(C(=O)NC4CCCCC4)cc32)c(C)c1 -23.1%, N#C/C(=C\c1ccc(Cl)cc1)c1nc(-c2cc3ccccc3oc2=O)cs1 -3.34%, COc1cccc(C(=O)N2c3cc(C)ccc3C(C)(c3ccccc3)CC2(C)C)c1 (stereo unspecified) -23.1%, CCc1ccc(CNC(=O)c2cnc3sc4cc(OC)ccc4n3c2=O)cc1 6.03%, CCCn1c2ccccc2c2cnn(CC(=O)N3CCC(C)CC3)c(=O)c21 -1.49%, CCOC(=O)c1sc2cccc(F)c2c1S(=O)(=O)N1CCN(c2cccc(Cl)c2)CC1 -16.2%, CCC(=O)N1CCc2cc(S(=O)(=O)NC(C(=O)Nc3ccc(C(C)=O)cc3)C(C)C)ccc21 (stereo unspecified) -9.31%, Cc1cc(C)c2c(CC(=O)N(Cc3ccccc3)C3CCS(=O)(=O)C3)coc2c1 (stereo unspecified) -13.8%, Cn1c(=O)oc2cc(S(=O)(=O)Nc3ccc(C(=O)O)cc3)ccc21 7.89%, CCC(=O)N1CCc2cc(Br)cc(S(=O)(=O)N3CCCC(C(=O)N(C)c4ccc(Br)cc4)C3)c21 (stereo unspecified) -4.66%, COc1ccc(NC(=O)c2cccn2-c2nnc(N3CCCCC3)s2)cc1 -12.5%, COc1ccccc1CNC(=O)c1ccc(-c2nc(CN3CCc4ccccc43)c(C)o2)cc1 -12.1%, Cc1ccc(OCC(=O)Nc2ccc3nc(SCC(=O)N4CCc5ccccc54)sc3c2)cc1 -9.47%, CCn1c(=O)c2sccc2n2c(CCC(=O)Nc3cc(C)cc(C)c3)nnc12 37%, CCOC(=O)C1CCCN(c2nc3c(S(=O)(=O)c4ccc(C)c(C)c4)nnn3c3ccc(Cl)cc23)C1 (stereo unspecified) -4.42%, Cc1ccc(Cl)cc1N1CCN(c2ncnc3onc(C)c23)CC1 -8.21%, COc1ccc2c(c1)CC(C(=O)NCCCN1CCN(c3ccc(F)cc3)CC1)CO2 (stereo unspecified) -0.185%, COc1cccc(N2CCN(C(=O)C3CCN(S(=O)(=O)c4ccc5c(c4)oc(=O)n5C)CC3)CC2)c1 8.6%, Clc1ccc(N2CCN(c3ncnc4c3nc3n4CCCC3)CC2)cc1 13.8%, COc1ccc(-c2nc(CS(=O)CC(=O)NCc3ccccc3OC)c(C)o2)cc1 (stereo unspecified) 2.92%, COc1cccc(C(=O)Nc2cc3c(cc2C(=O)c2ccc(C)cc2)OCCO3)c1 -8.03%, COc1cc(C(=O)Nc2ccc3oc(-c4ccc(C)c(Br)c4)nc3c2)cc(OC)c1OC -9.97%, COc1ccc(N2CCN(c3oc(/C=C/c4cc(OC)c(OC)c(OC)c4)nc3C#N)CC2)cc1 -15.9%, COc1ccc(F)cc1S(=O)(=O)NCCc1sc2nc(-c3ccc(F)cc3)nn2c1C -1.48%, CCc1nnc(SCC(=O)Nc2ccc(F)cc2F)c2cc3sc(C)cc3n12 0.629%, CCOC(=O)c1ccccc1NC(=O)N(C)CCc1c(C)nn(CC)c1C 2.34%, Cc1cc(C)cc(Oc2nc3c(c(=O)n(C)c(=O)n3C)n2Cc2ccc(F)cc2)c1 -5.92%, Cc1cc(C)c2c(CC(=O)Nc3c(C(=O)Nc4ccc(Cl)cc4)oc4ccccc34)coc2c1 6.75%
